From publication PMC8732845
These are yes or no findings as the source states them, for the method shown. In cells and extracts the contact can be indirect. Some entries that bind do so weakly or less than the wild type.

Protein sequences, listed by entry. Tags and fused reporters are not part of them. Lines headed by an entry give the natural chain unless they say otherwise; changes in a name come on top.
UniProt P16870: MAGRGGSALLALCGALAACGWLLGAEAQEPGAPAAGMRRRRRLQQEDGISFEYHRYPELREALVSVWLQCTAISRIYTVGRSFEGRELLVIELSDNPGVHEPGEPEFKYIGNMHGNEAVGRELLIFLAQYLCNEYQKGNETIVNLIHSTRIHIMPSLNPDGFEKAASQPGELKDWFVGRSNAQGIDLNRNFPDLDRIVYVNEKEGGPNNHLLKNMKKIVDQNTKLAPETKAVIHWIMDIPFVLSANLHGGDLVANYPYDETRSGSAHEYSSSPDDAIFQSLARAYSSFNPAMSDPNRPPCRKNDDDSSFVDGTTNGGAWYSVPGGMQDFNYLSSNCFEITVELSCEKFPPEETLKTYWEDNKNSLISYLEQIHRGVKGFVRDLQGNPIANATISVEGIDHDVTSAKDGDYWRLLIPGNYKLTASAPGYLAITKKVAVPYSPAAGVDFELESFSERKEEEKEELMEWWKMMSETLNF
UniProt P28566: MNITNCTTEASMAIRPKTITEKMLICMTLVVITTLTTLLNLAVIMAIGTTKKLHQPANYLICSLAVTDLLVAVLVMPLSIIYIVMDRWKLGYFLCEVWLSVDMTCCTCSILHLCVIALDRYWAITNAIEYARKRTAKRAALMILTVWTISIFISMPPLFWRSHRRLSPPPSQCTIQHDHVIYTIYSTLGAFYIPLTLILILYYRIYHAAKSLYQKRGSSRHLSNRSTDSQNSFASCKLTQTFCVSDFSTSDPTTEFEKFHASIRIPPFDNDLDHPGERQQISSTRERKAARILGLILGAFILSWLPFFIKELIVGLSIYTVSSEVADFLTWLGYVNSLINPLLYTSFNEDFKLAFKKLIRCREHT

Experiments:
[1] = target: NF-α1/CPE, endogenous in LN-18 glioblastoma cells (human (endogenous in LN-18)) (UniProt P16870); assay: co-IP; endogenous proteins; 1 mg precleared LN-18 lysate (50 mM Tris-HCl, 150 mM NaCl, 5 mM EDTA, 0.5% NP-40) with anti-5-HTR1E polyclonal or anti-NF-α1/CPE monoclonal antibody, protein A/G-Sepharose, 4°C overnight; immunoblot for the other protein
[2] = target: human 5-HTR1E with a C-terminal Myc tag (human) (UniProt P28566); assay: co-IP; called pull-down assay in the paper: HEK293 cells co-transfected with 5-HTR1E-myc and CPE-V5 or its fragments, 48 h; 1 mg lysate with anti-Myc or anti-V5-conjugated agarose overnight at 4°C; immunoblot with anti-V5 or anti-Myc
[3] = target: 5-HTR1E, endogenous in LN-18 glioblastoma cells (human (endogenous in LN-18)) (UniProt P28566); assay: co-IP; endogenous proteins; 1 mg precleared LN-18 lysate (50 mM Tris-HCl, 150 mM NaCl, 5 mM EDTA, 0.5% NP-40) with anti-5-HTR1E polyclonal or anti-NF-α1/CPE monoclonal antibody, protein A/G-Sepharose, 4°C overnight; immunoblot for the other protein

Substance | binding [2] | also measured
5-HTR1E, endogenous in LN-18 glioblastoma cells (from UniProt P28566 1-365) (receptor) |  | binding [1]: binds
NF-α1/CPE fragment 351–476 with a C-terminal V5 tag (from UniProt P16870 351-476) (domain or fragment) | no binding | 
NF-α1/CPE, endogenous in LN-18 glioblastoma cells (from UniProt P16870 43-476) |  | binding [3]: binds

Continued, in another order:

binding [2] | Substance | also measured
no binding | NF-α1/CPE fragment 1–150 with a C-terminal V5 tag (from UniProt P16870 26-150) (domain or fragment) | 
binds | NF-α1/CPE fragment 1–350 with a C-terminal V5 tag (from UniProt P16870 26-350) (domain or fragment) | 
